# Measured values taken from paper PMC6919601, “Identification of Plasmodium dipeptidyl aminopeptidase allosteric inhibitors by high throughput screening” (PLoS ONE, 2019).
# The campaign covered roughly 110,000 compounds. About 230 (0.21%) showed an effect of 50% or more. The list shows a part of the results.
# Target: DPAP1 (Plasmodium falciparum, UniProt Q8IIJ9)
# Test: primary screen, percent inhibition; read by cleavage of a fluorogenic dipeptide substrate; higher = more effect of the substance
# Design: species or system P. falciparum D10 trophozoite lysates; single well
# 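Note: 30 min substrate incubation versus DMSO and 10 µM JCP410 controls.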
# Sequence of DPAP1 (Q8IIJ9 whole entry, looked up): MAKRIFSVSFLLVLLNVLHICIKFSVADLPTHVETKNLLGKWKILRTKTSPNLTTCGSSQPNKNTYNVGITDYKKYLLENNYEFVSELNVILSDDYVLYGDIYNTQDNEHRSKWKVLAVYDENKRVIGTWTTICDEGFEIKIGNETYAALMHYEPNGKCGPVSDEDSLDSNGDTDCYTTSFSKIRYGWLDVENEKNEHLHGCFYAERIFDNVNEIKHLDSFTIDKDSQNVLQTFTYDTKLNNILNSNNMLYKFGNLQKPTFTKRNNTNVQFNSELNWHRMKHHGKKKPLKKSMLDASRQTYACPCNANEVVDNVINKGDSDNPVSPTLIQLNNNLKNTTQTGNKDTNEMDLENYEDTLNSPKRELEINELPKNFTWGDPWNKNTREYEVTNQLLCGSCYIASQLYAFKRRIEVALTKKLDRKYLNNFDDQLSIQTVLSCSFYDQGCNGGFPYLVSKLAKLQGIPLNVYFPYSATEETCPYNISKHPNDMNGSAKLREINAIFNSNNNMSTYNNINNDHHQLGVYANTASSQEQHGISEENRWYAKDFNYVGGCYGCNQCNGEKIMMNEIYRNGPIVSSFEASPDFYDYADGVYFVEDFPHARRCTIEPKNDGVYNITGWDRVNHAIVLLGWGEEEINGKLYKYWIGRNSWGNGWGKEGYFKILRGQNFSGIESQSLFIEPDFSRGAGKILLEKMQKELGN
row,SMILES,% Inhibition @ 10 uM [%]
1,COc1ccc(CN2CCN(Cc3ccc(C(F)(F)F)cc3)CC2)cc1,-8.46
2,Cc1ccsc1CN1CCOCC1,-3.57
3,COc1cccc(C2=NN(C)c3nc4c(c(=O)n(C)c(=O)n4C)n3C2)c1,-3.04
4,C=CCOc1ccccc1/C=c1\sc2nc(=O)c(Cc3ccc(C)cc3)nn2c1=O,4.51
5,CCCOc1ccc(Br)cc1/C=C(/C#N)c1nc2ccccc2[nH]1,-2.21
6,CCOC(=O)c1c(N2CCN(c3ccccc3)CC2)cc(C)nc1C,-0.807
7,CCN(CC)CCCNC(=O)C1CCCN(c2ncnc3onc(C)c23)C1 (stereo not drawn),2.69
8,CCOc1ccc(N2CC(C(=O)Nc3ccc4c(c3)OCO4)CC2=O)cc1 (stereo not drawn),-0.872
9,CCOc1ccccc1C(=O)Nc1cccc(Br)c1,1.01
10,O=C(CN(Cc1ccc(Cl)c(Cl)c1)S(=O)(=O)c1ccccc1)Nc1ccc2c(c1)OCO2,-1.17
11,CCc1ccc(N2C(=O)CSC2c2ccc(Cl)cc2Cl)cc1 (stereo not drawn),-1.75
12,COc1cccc2c1OC1(C)CC2C(S(=O)(=O)c2ccc(Cl)cc2)C(=O)N1 (stereo not drawn),4.14
13,CN(CCNC(=O)c1cc(O)nc2ccc(S(=O)(=O)N3CCCCCC3)cc12)Cc1ccccc1,0.387
14,COc1cccc(-c2nnc3n(CCc4ccccc4)c(=O)c4ccccc4n23)c1,0.00665
15,CCCn1c(CCCNC(=O)Cc2ccccc2)nc2ccccc21,-8.16
16,COC(=O)c1ccc(/N=C2/S/C(=C\c3cc(Cl)c(O)c(OC)c3)C(=O)N2C)cc1,3.29
17,Cc1nnc(N2C(=O)c3oc4ccccc4c(=O)c3C2c2cccc(Cl)c2)s1 (stereo not drawn),2.16
18,O=C(Nc1nnc(C2CCCCC2)s1)c1ccc2ccccc2c1,-1.93
19,O=C(NC1CCN(Cc2ccccc2)CC1)c1cc2c(=O)oc3ccccc3c2s1,1.08
20,COCCN1C(=O)c2ccccc2C(C(=O)NCCN2CCOCC2)C1c1ccc(F)cc1 (stereo not drawn),1.26
21,Cc1cc(=O)oc2c3c(ccc12)O/C(=C/C=C/c1ccccc1)C3=O,-0.812
22,CC(C)CC(=O)Nc1ccc(C(=O)c2ccccc2)cc1,2.5
23,Nc1c(C(=O)Nc2cccc(C(F)(F)F)c2)sc2nc3c(cc12)C(=O)CCC3,2.43
24,CCS(=O)(=O)N1CCC(C(=O)NCc2ccc(F)cc2Cl)CC1,-6.75
25,CCN(CC)CCN(C)CC1CC=CCC1 (stereo not drawn),1.62

row,SMILES,% Inhibition @ 10 uM [%]
1,Cc1ccccc1NC(=O)C1CC=CCC1C(=O)N(c1ccccc1)c1ccccc1 (stereo not drawn),6.03
2,CC(=O)N/C(=C\c1ccc(F)cc1)C(=O)N(C)C,-3.26
3,CSc1nnc(-c2ccc(Cl)cc2Cl)o1,-2.18
4,O=C(NCCc1ccc(Cl)cc1)C1CCN(c2nn3cc(-c4ccc(F)cc4)nc3s2)CC1,2.62
5,CCCc1[nH]nc2c1C(c1cccc3ccccc13)C(C#N)=C(N)O2 (stereo not drawn),5.24
6,COc1ccc(C2N3CC(C)(C)CN23)cc1 (stereo not drawn),-3.5
7,CN(C)c1ccnc2sc3c(O)ncnc3c12,3.18
8,Cn1c2ccccc2c2cnn(CC(=O)N3CCC(Cc4ccccc4)CC3)c(=O)c21,-0.23
9,Cc1cc(-c2ccco2)n(CC(=O)NCCN(C)C)n1,1.63
10,CC(C)(C)/N=c1\c(N)c(O)oc2ccccc12,-0.25
11,COc1ccccc1NC(=O)/C=C\C(=O)O,1.63
12,CCOc1ccc(C2C(C#N)=C(N)N(c3ccccc3)C3=C2C(=O)CCC3)cc1 (stereo not drawn),-1.64
13,CCOc1ccc(C(=O)Nc2ccc(S(=O)(=O)NC(C)(C)C)cc2)cc1,13.5
14,O=C1CC(c2cccc(Cl)c2Cl)C2=C(CC(c3ccc(F)cc3)CC2=O)N1 (stereo not drawn),6.91
15,Clc1ccc(-c2onc3ccc(Cl)cc23)cc1,-2.2
16,COc1ccc(S(=O)(=O)N(CC(=O)Nc2ccc3c(c2)OCO3)c2ccc(F)cc2)cc1OC,-1.61
17,Cc1[nH]nc2c1C(c1cccc(OCc3ccc(Cl)cc3)c1)C(C#N)=C(N)O2 (stereo not drawn),-0.68
18,COc1ccc(C2C(C#N)=C(N)Oc3c2c(C)nn3-c2cccc(Cl)c2)cc1OC (stereo not drawn),0.343
19,CC1=C(C(=O)Nc2ccccc2)SCCO1,-3.94
20,O=C(NCc1cccnc1)c1cc(-c2ccccc2)nc2ccccc12,-1.89
21,CCOc1ccc(C(=O)Nc2cc(Cl)ccc2C)cc1,-6.02
22,O=C(NC1(C(F)(F)F)C(=O)Nc2c1c(=O)[nH]c(=O)n2-c1ccc(F)cc1)c1cccnc1 (stereo not drawn),-7.18
23,C=CCNC(=S)Nc1[nH]nc2nc(C)cc(C)c12,2.18
24,COc1ccc(CCNC(=O)c2ccc(CNc3nc(S)nc4ccccc34)cc2)cc1OC,5.43
25,CCN(CC)C(=O)c1ccc(S(=O)(=O)c2ccc(Cl)c(Cl)c2)cc1,4.55

row,SMILES,% Inhibition @ 10 uM [%]
1,COc1cccc(C2C3=C(O)c4ccccc4C3=Nc3c2c(=O)n(C)c(=O)n3C)c1OC (stereo not drawn),5.05
2,CCOc1cc(C2C3=C(O)CC(C)(C)CC3=NC(C)=C2C(=O)N2CCCCC2)ccc1O (stereo not drawn),1.86
3,CCC(C)N1C(=O)C(=O)N(C2CCCCC2)C1=O (stereo not drawn),-2.77
4,Brc1ccc(NC(c2ccccc2)c2ccncc2)cc1 (stereo not drawn),4.17
5,Cc1cccc(CCNC(=O)c2ccc(C/N=c3\c(O)c(O)\c3=N/C3CCCC3)cc2)c1,1.63
6,Cc1cc(C)c2c(N)c(C(=O)NCc3ccco3)sc2n1,-5.38
7,CC(NC(=O)c1ccc(Br)cc1)c1ccc2c(c1)OCCO2 (stereo not drawn),-1.51
8,COc1cccc2sc(N(CCN(C)C)C(=O)c3ccc(C(=O)c4ccccc4)cc3)nc12,3.7
9,COc1cccc(C2C(=O)N(C3CCC(C)CC3)CC(=O)N2CCC2=CCCCC2)c1OC (stereo not drawn),7.37
10,COC(=O)[C@@H]1C[C@@H](O)CN1Cc1ccsc1,-1.2
11,COc1ccc(CN2CCN(Cc3c[nH]c4ccccc34)CC2)c(OC)c1,1.64
12,Cc1nn(C)c(C)c1CNC(=O)c1cc2nc(-c3cccs3)cc(C(F)(F)F)n2n1,6.65
13,COCCCNC(=O)CSc1[nH]c(-c2cc(OC)c(OC)c(OC)c2)nc1-c1ccc(F)cc1,1.85
14,COc1ccccc1/C=c1/[nH]c(=O)/c(=C\c2ccccc2OC)[nH]c1=O,1.44
15,Nc1c(N2CCN(c3ccccc3)CC2)c2ccccc2oc1=O,-4.3
16,O=C(c1csc2c1CCCC2)N1CCN(c2ccccn2)CC1,-2.74
17,COc1ccccc1-c1nc(-c2cccnc2)no1,4.65
18,Cc1cccc(NC(=O)CN2C(=O)N/C(=C\c3cc(C)n(-c4ccccc4)c3C)C2=O)c1,0.635
19,Cc1ccc(NS(=O)(=O)c2ccc(NC(=O)C3CC3)cc2)c(C)c1,2.95
20,COc1cc(-c2cccs2)c(OC)cc1-c1cccs1,-1.65
21,Cc1nnc(N2CCC(C(=O)NCCN3CCCCC3C)CC2)c2nn(-c3ccccc3)c(C)c12 (stereo not drawn),6.1
22,COc1ccc2c(c1OC)C(=O)OC2Nc1ncccc1C (stereo not drawn),-4.7
23,CCn1cc(CNC(=O)Cn2nc(C(F)(F)F)cc2C2CC2)cn1,0.709
24,CNCC(=O)Nc1ccc2c(c1)Nc1ccccc1CC2,-2.47
25,CCOC(=O)c1nnn(-c2nonc2N)c1-c1ccc(C)cc1,-3.64

row,SMILES,% Inhibition @ 10 uM [%]
1,Cc1ccsc1C1C(C#N)=C(N)Oc2[nH]c(-c3ccccc3)nc21 (stereo not drawn),5.52
2,CC(C)/N=C(\N=C(\NS(=O)(=O)c1ccccc1)c1ccccc1)c1ccc(Br)cc1,-1.29
3,Cc1ccc2c(c1)-c1c(cnn1CC(=O)NCCc1ccsc1)CO2,-6.42
4,CCSc1nc2c(c(=O)n1CC1CCCC1)C1(CCCCC1)Cc1ccccc1-2,3.01
5,CC1=C(C(=O)Nc2ccc(Cl)cc2)C(c2ccc3c(c2)OCO3)n2ncnc2N1 (stereo not drawn),2.93
6,CC1=CC(C)(C)N(C(=O)CN2C(=O)C3CCCCC3C2=O)c2ccccc21 (stereo not drawn),1.57
7,Cc1ccc(S(=O)(=O)NCC(=O)N2CCN(Cc3ccccc3)CC2)cc1,4.94
8,COCC(C)NCc1ccc(OC)c(C)c1 (stereo not drawn),-1.54
9,CC(=O)Nc1cccc(NC(=O)c2ccco2)c1,4.66
10,c1cnc(N2CCN(Cc3ccsc3)CC2)nc1,7.03
11,O=C(O)c1ccc(C2(c3ccc(C(=O)O)cc3)OC(=O)c3ccccc32)cc1,-6.99
12,Cn1c(NCc2c[nH]nc2-c2cccs2)nc2ccccc21,3.24
13,Cc1ccc(S(=O)(=O)N(CC(=O)NC2CC2)C2CCCCC2)cc1,-1.4
14,CCn1c2ccccc2c2cc(/C=C(\C#N)c3nn(CCO)c(N)c3C#N)ccc21,4.66
15,FC(F)(F)COc1nc(OCC(F)(F)F)nc(OCC(F)(F)F)n1,4.22
16,CC(=O)Nc1ccc(NC(=O)C2CCCN(c3ncnc4c3nc3n4CCCCC3)C2)cn1 (stereo not drawn),-0.238
17,CCOc1ccc(CNC(=O)C2=Cc3sc4c(c3CS2)CCCC4)cc1,15.7
18,CCN(C(=O)Cc1ccccc1)c1ccccc1C,0.135
19,Cc1ccnc(NC(=O)C(c2ccccc2)N2Cc3ccccc3C2=O)c1 (stereo not drawn),1.66
20,N#CCCN1CCN(C2=NC(=O)/C(=C/c3ccccc3)S2)CC1,4.08
21,O=C(C1=NOC2(C(=O)c3ccccc3C2=O)C1c1ccccc1)c1ccccc1 (stereo not drawn),-3.58
22,Cc1cccc(NS(=O)(=O)c2ccc(Cl)cc2)c1C,1.91
23,Cc1ccc(-n2c(-c3ccncc3)nc3ccccc3c2=O)cc1,-4.43
24,Cc1cc(N2CCNCC2)n2ncnc2n1,-2.91
